Measurements: publication PMC12743552, “Key residues regulating von Willebrand factor A1/A2 interactions: insights from molecular dynamics simulations and experimental validation” (Research and Practice in Thrombosis and Haemostasis, 2025)

Columns and labels:
[1] = biological target: T1, recombinant VWF-A2 (von Willebrand factor A2 domain, amino acids M1473-G1672), wild type (UniProt P04275 1473-1672, biotinylated in the BLI assay (site not stated); not said to be biotinylated in the AFM assay); assay: atomic force microscopy (adhesion frequency and rupture force); VWF-A2 (15 ug/mL) held on the cantilever tip and VWF-A1 or its variants (15 ug/mL) on polystyrene dishes, each through adsorbed mouse anti-His mAb; blocked with 2% BSA; approach-retraction speed 200 nm/s in 2% BSA; 100 contact cycles a point; conditions: both partners purified
T1 construct: von Willebrand factor, A2 domain, residues M1473-G1672; cloned from a full-length VWF plasmid (MiaoLingBio); Secreted into the medium of HEK293F cells; The discussion calls the host HEK293 cells; source: HEK293F cells, culture medium collected, purified (Ni2+-Hi-Trap chelating column); not shown: His tag, N-terminal, kept

[2] = biological target: T2, VWF-A2 mutant A2_mut (V1546A/R1575A/E1598A) (UniProt P04275 1473-1672, V1546A | R1575A | E1598A); assay: as above; conditions: both partners purified
T2 construct: von Willebrand factor, A2 domain, residues M1473-G1672, with V1546A, R1575A and E1598A; source: HEK293F cells, culture medium collected, purified (Ni2+-Hi-Trap chelating column); not shown: His tag, N-terminal, kept

B1: recombinant VWF-A1 (von Willebrand factor A1 domain, […]), wild type (domain or fragment)
chain: not shown
notes: von Willebrand factor, A1 domain, […]; cloned from a full-length VWF plasmid (MiaoLingBio); Secreted into the medium of HEK293F cells; The tag is 6xHis to judge from the anti-6xHis antibody used for capture; also called WT A1; WT VWF-A1; source: HEK293F cells, culture medium collected, purified (Ni2+-Hi-Trap chelating column); not shown: His tag, N-terminal, kept
For B1, the average rupture force [1] was 42.2 pN, the “central peak value (XC) of the rupture force distribution” value [1] was 34.4 pN and the adhesion frequency [2] was 6.4%. For the same binder, the average rupture force [2] was 33 pN and the “central peak value (XC) of the rupture force distribution” value [2] was 24.5 pN.
